# Experimental data as given in article PMC4336329 (PLoS ONE, 2015).
# Among all 310,000 compounds or so, about 2,200 (0.71%) showed an effect of 50% or more. Effects have a minus sign here. The list shows a part of the results.
# Target: human ether-à-go-go-related gene (hERG) potassium channel (human, UniProt Q12809)
# Assay: primary screen, population patch clamp on CHO cells stably expressing hERG
# human ether-à-go-go-related gene (hERG) potassium channel, sequence (Q12809 whole entry, looked up): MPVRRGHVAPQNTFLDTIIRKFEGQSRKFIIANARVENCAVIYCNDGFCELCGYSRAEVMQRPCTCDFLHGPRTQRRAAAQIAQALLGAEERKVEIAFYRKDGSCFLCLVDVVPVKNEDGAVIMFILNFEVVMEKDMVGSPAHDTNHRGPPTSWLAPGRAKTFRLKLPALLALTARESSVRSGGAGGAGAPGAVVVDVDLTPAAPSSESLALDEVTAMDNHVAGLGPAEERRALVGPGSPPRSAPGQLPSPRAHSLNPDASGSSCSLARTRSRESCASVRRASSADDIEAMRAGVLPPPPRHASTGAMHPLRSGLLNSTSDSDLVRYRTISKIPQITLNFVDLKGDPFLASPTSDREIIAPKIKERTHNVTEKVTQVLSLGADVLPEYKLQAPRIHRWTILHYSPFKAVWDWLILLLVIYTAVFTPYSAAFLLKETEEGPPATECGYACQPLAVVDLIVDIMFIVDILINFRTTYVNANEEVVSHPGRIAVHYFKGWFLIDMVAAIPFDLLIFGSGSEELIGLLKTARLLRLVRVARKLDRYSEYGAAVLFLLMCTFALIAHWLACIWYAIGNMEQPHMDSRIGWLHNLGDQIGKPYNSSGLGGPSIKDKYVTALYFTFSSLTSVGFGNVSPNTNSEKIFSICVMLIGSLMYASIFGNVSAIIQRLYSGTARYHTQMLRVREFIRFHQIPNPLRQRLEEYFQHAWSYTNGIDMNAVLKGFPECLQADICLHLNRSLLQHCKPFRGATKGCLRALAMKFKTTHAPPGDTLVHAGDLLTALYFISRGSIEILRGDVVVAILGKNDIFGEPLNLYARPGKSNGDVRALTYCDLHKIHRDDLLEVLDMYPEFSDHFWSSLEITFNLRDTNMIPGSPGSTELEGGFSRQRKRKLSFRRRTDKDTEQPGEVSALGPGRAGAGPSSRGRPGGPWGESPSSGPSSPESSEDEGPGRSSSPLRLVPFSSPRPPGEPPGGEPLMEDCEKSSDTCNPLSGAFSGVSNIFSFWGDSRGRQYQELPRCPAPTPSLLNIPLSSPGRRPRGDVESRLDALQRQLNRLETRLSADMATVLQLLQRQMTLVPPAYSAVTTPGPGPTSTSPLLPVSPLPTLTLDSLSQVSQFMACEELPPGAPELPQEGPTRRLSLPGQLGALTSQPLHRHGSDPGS
row,Structure (SMILES),"hERG current change (%, negative = inhibition) at 1uM [%]"
1,O=C(COc1ccccc1)NC(Cc1c[nH]c2ccccc12)C(=O)O (stereo not shown),15.3
2,COc1ccc(C(=O)Nc2nc(CC(=O)NCCc3cccc(OC)c3)cs2)cc1,-4.45
3,O=C(NCC(c1cccs1)N1CCOCC1)c1cc([N+](=O)[O-])cc([N+](=O)[O-])c1 (stereo not shown),13.9
4,CCOC(=O)c1[nH]c(C)c(/C(O)=C2\C(=O)C(=O)N(CCN(C)C)C2c2ccc(C)o2)c1C (stereo not shown),12
5,CN1CCN(c2ccccc2NC(=O)c2ccc(-c3ccccc3)cc2)CC1,1.52
6,CCOC(=O)c1cc[nH]c1C,15
7,NNC(=O)CN(CCc1ccccc1)S(=O)(=O)c1ccc(Cl)cc1,0.141
8,Cc1ccc(-c2nc(=S)c3c(n2Cc2ccco2)CC(C)(C)OC3)cc1,2.16
9,O=c1c2nnn(-c3ccc(Br)cc3)c2ncn1Cc1ccccn1,-16.1
10,Cc1nc2oc3ccc(F)cc3c(=O)c2cc1C(=O)O,6.62
11,COc1ccc(S(=O)(=O)NC2CCSc3ccccc32)cc1NC(C)=O (stereo not shown),5.06
12,CN1CCN(C2=Cc3ccccc3Sc3cc(F)ccc32)CC1.O=C(O)/C=C\C(=O)O,3.9
13,CC(C)(C)OC(=O)CNC(=O)c1[nH]cnc1C(=O)Nc1ccc(Cl)cc1,18
14,COC(=O)c1ccnc(/C=N/O)c1,16.4
15,O=C(CCCN1C(=O)C(c2ccccc2)Oc2cccnc21)NCc1ccccc1Cl (stereo not shown),22.9
16,CCCCC(O)(CCCC)C(=O)NN(C(=O)c1cccnc1Cl)c1ccccc1,4.71
17,CCc1cc(=O)oc2cc(C)cc(OC(C)C(=O)NCCCn3ccnc3)c12 (stereo not shown),2.72
18,CC12CC[C@H]3[C@@H](CCC4(O)C[C@H](O)CCC34/C=N/NC(=O)c3ccccc3O)C1(O)CCC2C1=CC(=O)OC1 (stereo partly shown),12.7
19,CC(C)(C)C(=O)COC(=O)c1ccc(O)cc1,9.06
20,Cc1cccc(CS(=O)(=O)c2ncc(Cl)c(C(=O)Nc3ccc(F)cc3)n2)c1,17.6
21,C[C@H](NC(=O)c1nc[nH]c1C(=O)N[C@@H](CCCCNC(=O)OC(C)(C)C)C(=O)OC(C)(C)C)C(=O)OCc1ccccc1,5.31
22,COc1ccc([C@H]2CC(=O)C=C(c3ccc(-c4ccccc4)cc3)C2)cc1OC,18.8

row,Structure (SMILES),"hERG current change (%, negative = inhibition) at 1uM [%]"
1,Nn1cnc2scc(-c3cccs3)c2c1=O,9.38
2,COc1ccc(CCNCc2ccc(OCc3ccccc3)cc2)cc1,3.16
3,Cc1noc(C)c1C(=O)Nc1ccccc1-c1ccccc1,17.8
4,O=C(COC(=O)CCCc1nc2ccccc2s1)Nc1ncc(Cl)cc1Cl,7.98
5,CC(C)(C)c1nc(C(C)(C)C)c(Br)c(=O)[nH]1,1.89
6,COC(=O)C1=C(c2ccc(-c3ccccc3)c(F)c2)C[C@@H]2CC[C@H]1N2C(=O)NC1Cc2ccccc2C1,12.8
7,Cc1ccc2cccc(OC(=O)c3ccc4c(c3)OCCO4)c2n1,-3.96
8,COCC(C)n1c(-c2ccc3c(c2)NC(=O)CO3)csc1=Nc1ccc(OC(F)F)cc1 (stereo not shown),6.97
9,O=C(CSc1nc(=O)n2ccccc2n1)N1CCC(Cc2ccccc2)CC1,-27.4
10,Cn1c(N)c(C(=O)CN2CCc3ccccc3C2)c(=O)n(C)c1=O,1.65
11,COc1ccc(-c2nnc(Nc3ccc(CC(N)=O)cc3)c3ccccc23)cc1,-3.65
12,CNc1nc(-c2c[nH]c3ccccc23)cs1,-6.63
13,CC(C)CCNC(=O)c1ccc(Cl)c(NC(=O)Cc2ccccc2)c1,-1.18
14,Cc1cc2nc(-c3ccc(SCc4ccccc4C#N)nc3)[nH]c2cc1C,4.69
15,Cc1cc(C)n(-c2cccc(F)n2)n1,16.4
16,C[C@H]1[C@@H](OC(=O)CCC(=O)O)O[C@@H]2O[C@@]3(C)CC[C@H]4[C@H](C)CC[C@@H]1[C@@]24OO3,4.17
17,CC(C)(C)c1ccc(OCC(O)CS(=O)(=O)c2ccccn2)cc1 (stereo not shown),5.03
18,CCNc1c(NS(=O)(=O)c2ccc(C3CCCCC3)cc2)c(=O)oc2ccccc12,16.3
19,CCCCNC(=S)N(C)/N=C/c1c(F)c(F)c(F)c(F)c1F,0.622
20,O=C(Nc1ccccn1)c1cc2cc([N+](=O)[O-])ccc2s1,18.7
21,CSC1=NC(=O)/C(=C\c2cccc3ccccc23)S1,10.9
